In patent publication US20250269026A1 (CHENGDU KELUN PRECISION BIOTECHNOLOGY, published 2025):

Columns and labels:
[1] = biological target: T1, MSLN on MSLN-positive cells (293T/MSLN+, OVCAR-3, NCI-H596) (human, UniProt Q13421 296-598); test: flow cytometry, serially diluted scFv-Fc on 293T/MSLN+ cells
T1 construct: whole, on cells; The construct used in 293T/MSLN+ is not described; also called mesothelin; human MSLN
Source text: (§1) In order to identify the binding affinity of MSLN scFv-Fc protein, the MSLN scFv-Fc protein was serially diluted and used to stain the three selected cell lines expressing MSLN, and the cell binding ability was detected by flow cytometry.

[2] = biological target: T1, MSLN on MSLN-positive cells …; test: flow cytometry, serially diluted scFv-Fc on NCI-H596 cells
Source text: as §1

[3] = biological target: T1, MSLN on MSLN-positive cells …; test: flow cytometry, serially diluted scFv-Fc on OVCAR-3 cells
Source text: as §1

T1 sequence (Q13421 other isoform, or with tags, fused parts or gaps limits assumed): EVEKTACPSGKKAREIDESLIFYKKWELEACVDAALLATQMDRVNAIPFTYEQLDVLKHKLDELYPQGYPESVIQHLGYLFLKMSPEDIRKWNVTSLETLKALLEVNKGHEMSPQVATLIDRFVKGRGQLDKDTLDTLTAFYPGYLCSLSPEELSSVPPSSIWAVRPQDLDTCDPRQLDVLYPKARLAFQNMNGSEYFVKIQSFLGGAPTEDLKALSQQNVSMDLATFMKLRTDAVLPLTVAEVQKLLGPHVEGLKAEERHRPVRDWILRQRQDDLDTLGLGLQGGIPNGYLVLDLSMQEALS

EC50 [1]: 1.58 nM
EC50 [2]: 2.25 nM
EC50 [3]: 4.92 nM
B1: G16 scFv-Fc (Fc fusion)
chain: QVQLVQSGAEVTKPGASVKVSCRASGYPFSNFFMNWVRQAPGQGLEWMGIINPIGGSTTYAQKFQGRVTMTRDTSTDTVYMELSSLRSDDTAVYYCARSSSHLGAFDIWGQGTMVTVSSASGGGGSGGRASGGGGSDIQLTQSPSSVSASVGDRVTITCRASQSISTWVAWYQHKPGVAPKLLIYASPTLQSGVPSRFSGSGSGTDFTLTISSLQSEDFATYYCQQAHSFPITFGQGTRLEIKRP[sequence of human IgG1 Fc with changes omitted]
notes: no linker between the two is stated; also called anti-MSLN antibody G16; MSLN scFv-Fc protein
